{"source": "the BET-seq Pho4 binding data (Le et al. 2018)", "note": "The other results are listed elsewhere or left out. The energies were worked out here from pooled read counts, against the library average; single values are noisy.", "data": [{"target": "T1, Pho4 (S. cerevisiae) (UniProt P07270)", "T1 sequence": "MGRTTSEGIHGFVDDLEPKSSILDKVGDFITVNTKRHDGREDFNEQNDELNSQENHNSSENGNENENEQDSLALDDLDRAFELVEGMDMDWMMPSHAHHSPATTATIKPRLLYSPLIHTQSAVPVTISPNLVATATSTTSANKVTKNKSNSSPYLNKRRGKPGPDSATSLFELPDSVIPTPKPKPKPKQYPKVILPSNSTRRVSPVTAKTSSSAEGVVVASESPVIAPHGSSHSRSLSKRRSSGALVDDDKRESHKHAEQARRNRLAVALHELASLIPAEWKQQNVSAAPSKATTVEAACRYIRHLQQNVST", "test": "relative binding free energy (BET-seq); higher = weaker binding", "conditions": "reference: library average", "units": {"relative binding free energy": "kcal/mol"}, "values": [{"sequence": "GCGGTCACGTGGGTGG", "relative binding free energy": 0.03}, {"sequence": "CAGCGCACGTGATGGG", "relative binding free energy": 0.03}, {"sequence": "GGTGACACGTGCTTGT", "relative binding free energy": -0.07}, {"sequence": "GGGTGCACGTGGCGTA", "relative binding free energy": -0.03}, {"sequence": "AGATACACGTGGTGAT", "relative binding free energy": -0.02}, {"sequence": "ACTCGCACGTGGTGGT", "relative binding free energy": -0.19}, {"sequence": "TGGATCACGTGAAGAT", "relative binding free energy": 0.32}, {"sequence": "GGGGTCACGTGTTGAA", "relative binding free energy": 0.31}, {"sequence": "GGTTACACGTGTTGTT", "relative binding free energy": 0.18}, {"sequence": "CGGGTCACGTGAGTTC", "relative binding free energy": 0.41}, {"sequence": "TAGTACACGTGTGTCT", "relative binding free energy": 0.05}, {"sequence": "ATTAGCACGTGTAAGT", "relative binding free energy": -0.01}, {"sequence": "ATACTCACGTGATGTT", "relative binding free energy": 0.37}, {"sequence": "ATTAACACGTGCGGTT", "relative binding free energy": -0.05}, {"sequence": "GAGGTCACGTGGACGG", "relative binding free energy": 0.25}, {"sequence": "TGCGTCACGTGTATAT", "relative binding free energy": -0.01}, {"sequence": "TGTCTCACGTGGGTTA", "relative binding free energy": 0.04}, {"sequence": "GTGGTCACGTGGAGAA", "relative binding free energy": 0.02}, {"sequence": "TTTAGCACGTGTTTGG", "relative binding free energy": -0.01}, {"sequence": "ATTCGCACGTGGGTTA", "relative binding free energy": -0.18}, {"sequence": "AGTTTCACGTGAGACT", "relative binding free energy": 0.41}, {"sequence": "TGTTTCACGTGTGGCA", "relative binding free energy": 0.46}, {"sequence": "CAGGTCACGTGATTTG", "relative binding free energy": 0.35}, {"sequence": "ATTGACACGTGATTAT", "relative binding free energy": 0.09}, {"sequence": "AGTCACACGTGGATGT", "relative binding free energy": 0.19}, {"sequence": "GTATACACGTGTGTGA", "relative binding free energy": 0.03}, {"sequence": "ATAGGCACGTGAGGCT", "relative binding free energy": 0.11}, {"sequence": "TTATTCACGTGGTAAT", "relative binding free energy": 0.25}, {"sequence": "TGTGGCACGTGGCTGG", "relative binding free energy": -0.08}, {"sequence": "GAGCTCACGTGTTGTG", "relative binding free energy": 0.3}, {"sequence": "GTCATCACGTGGGGCG", "relative binding free energy": 0.08}, {"sequence": "AAGGGCACGTGGCAGT", "relative binding free energy": -0.21}, {"sequence": "AAGGTCACGTGGACTG", "relative binding free energy": 0.12}, {"sequence": "GTAGACACGTGGTACG", "relative binding free energy": -0.12}, {"sequence": "TTGGTCACGTGAAGAT", "relative binding free energy": 0.28}, {"sequence": "CTTGTCACGTGTAAGT", "relative binding free energy": 0.06}, {"sequence": "CCGTTCACGTGTTGGT", "relative binding free energy": 0.13}, {"sequence": "ATTCGCACGTGGTATG", "relative binding free energy": -0.1}, {"sequence": "TAAGACACGTGGAAGT", "relative binding free energy": 0.1}, {"sequence": "AAGGGCACGTGGTTCA", "relative binding free energy": -0.16}, {"sequence": "CGAGGCACGTGATGAG", "relative binding free energy": -0.02}, {"sequence": "AGGATCACGTGGCATG", "relative binding free energy": 0.07}, {"sequence": "GTGCGCACGTGCTGTT", "relative binding free energy": -0.03}, {"sequence": "GTTTGCACGTGTCCGG", "relative binding free energy": -0.06}, {"sequence": "GGTGTCACGTGAGCAG", "relative binding free energy": 0.29}, {"sequence": "AGAATCACGTGATATT", "relative binding free energy": 0.22}, {"sequence": "AATAGCACGTGGATGA", "relative binding free energy": -0.01}, {"sequence": "ATGGGCACGTGGTGGG", "relative binding free energy": -0.21}, {"sequence": "GAGTGCACGTGCTGGG", "relative binding free energy": -0.05}, {"sequence": "GGGGTCACGTGTCAGT", "relative binding free energy": 0.12}, {"sequence": "GCGTGCACGTGAAAGT", "relative binding free energy": 0.32}, {"sequence": "TTCTTCACGTGAATGG", "relative binding free energy": 0.38}, {"sequence": "GGCGGCACGTGGAATG", "relative binding free energy": 0.09}, {"sequence": "AATGGCACGTGGATCG", "relative binding free energy": -0.09}, {"sequence": "AAGGTCACGTGTGAGG", "relative binding free energy": 0.13}, {"sequence": "CAAGACACGTGGTGGG", "relative binding free energy": -0.03}, {"sequence": "ATAATCACGTGGGGCT", "relative binding free energy": -0.07}, {"sequence": "GGATTCACGTGTTGTG", "relative binding free energy": 0.35}, {"sequence": "ATCGGCACGTGTTTGC", "relative binding free energy": -0.03}, {"sequence": "GGTTACACGTGGTTGC", "relative binding free energy": 0.12}, {"sequence": "TTGCGCACGTGGTGAG", "relative binding free energy": -0.2}, {"sequence": "GTGGTCACGTGAGGGT", "relative binding free energy": 0.39}, {"sequence": "TGGATCACGTGGAGCG", "relative binding free energy": 0.12}]}]}
